Assay results published in PubChem BioAssay AID686979 (National Center for Advancing Translational Sciences (NCATS), 2013).
In all, about 420,000 compounds went through this assay and about 50,000 (12%) were called active. The inconclusive results got no clear call from the source; some entries with a clear call stand among them for comparison. Calls follow the shape of the dose curve; as a rule, active = well fitted inhibition curve with a large enough effect; inconclusive = small, poorly fitted or top-dose-only effect; inactive = flat fitted curve, though single readings scatter. Potencies of inconclusive entries are left out as doubtful fits.

Assay: qHTS for Inhibitors of human tyrosyl-DNA phosphodiesterase 1 (TDP1): qHTS in cells in presence of CPT; also: nearly all actives have a fitted effect of over 55% in size
Conditions: chicken DT40 Tdp1-/-;hTDP1 cells + 20 nM CPT, ATP luminescence, 48 h; activity change, negative = growth inhibition: at 46.2 µM (top of the series) unless noted
In short: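 Cell growth measured by CellTiter-Glo luminescence after a minimum 48 h, 37 C compound exposure with 20 nM CPT in Tdp1-knockout DT40 cells stably expressing hTDP1, seeded 400/well; qHTS titration format.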
% is scaled to controls: 0 for no effect and ±100 for the full control effect; potency is read from the fitted curve at half-maximal effect; tags tell the direction and shape of the fitted curve.

Row | SMILES | Potency | activity change, negative = growth inhibition
1 | COc1ccc(Nc2cc(C(=O)NC3CCCC3)c3ccccc3n2)cc1 | inconclusive [inhibitor, full curve] | 
2 | Cc1nc(N=C(N)N)nc2c(C)cccc12 | inconclusive [inhibitor, single point] | 
3 | CCOC(CCn1c(SCc2cccc([N+](=O)[O-])c2)nc2ccccc2c1=O)OCC | active: 16.4 µM | 
4 | CCOC(=O)c1c(C)[nH]c(C(=O)COC(=O)C(C)N2C(=O)C3CCCCC3C2=O)c1C (stereo unspecified) | inconclusive [inhibitor, partial curve] | 
5 | CCN(CC)S(=O)(=O)c1cc(C(=O)Nc2ccncc2)ccc1Cl | active: 23.1 µM | 
6 | O=C(c1cc2n(n1)C(C(F)(F)F)CC(c1ccco1)N2)N1CCc2ccccc2C1 (stereo unspecified) | inconclusive [inhibitor, single point] | 
7 | Cc1cc2oc(=O)cc(CN3CCN(S(=O)(=O)c4ccc5c(c4)OCCO5)CC3)c2cc1C | inconclusive [inhibitor, single point] | 
8 | Cc1nc(-c2nnc(SCC(=O)Nc3cc(Cl)cc(Cl)c3)n2C)cs1 |  | inactive: 3.17%
9 | COc1ccccc1CN(C)CC(=O)Nc1ccc(Cl)cc1C(F)(F)F | active: 20.6 µM | 
10 | NC(=O)c1nn2c(C(F)(F)F)cc(-c3ccc(Br)cc3)nc2c1Cl | inconclusive [inhibitor, single point] | 
11 | COc1ccccc1CCC(=O)Nc1ccc2c(c1)CN(Cc1ccc(CO)o1)CC2 | inconclusive [inhibitor, single point] | 
12 | C=CCNC(=O)CC(=O)N/N=C/c1cccc(C)c1 |  | inactive: 1.83%
13 | Cc1ccc(F)cc1C(=O)N1CCCCC1c1cc(C(=O)Nc2ccccc2)no1 (stereo unspecified) | inconclusive [inhibitor, single point] | 
14 | Cc1nc2c(OCc3ccc(C(F)(F)F)cc3)cccn2c1N(C)CC1CC1 | inconclusive [inhibitor, single point] | 
15 | CCCCNC(=O)C(NC(=O)Cc1cc(OC)cc(OC)c1)C(=O)c1ccccc1 (stereo unspecified) | inconclusive [inhibitor, single point] | 
16 | C=CCN1C(=O)c2ccc(C(=O)N3CCN(c4ccccc4OC)CC3)cc2C1=O |  | inactive: -4.74%
17 | O=C1NC(=Nc2ccc(O)cc2)S/C1=C/c1ccco1 | inconclusive [inhibitor, single point] | 
18 | CC(=O)c1cccc(NC(=O)Cn2nc(C(F)(F)F)c3c2CCC3)c1 | inconclusive [inhibitor, single point] | 
19 | CN(C)c1ncnc2c1ncn2[C@H]1CN(Cc2ccncc2)C[C@@H](CO)O1 |  | inactive: -26.6%
20 | CSc1nc2sc(-c3ccccc3)cc2c(=O)n1N | inconclusive [inhibitor, partial curve] | 
21 | O=[N+]([O-])c1ccc(N2CCN(S(=O)(=O)c3ccc(Cl)c(Cl)c3)CC2)cc1NCCN1CCOCC1 | inconclusive [inhibitor, partial curve] | 

Row | SMILES | Potency | activity change, negative = growth inhibition
22 | Cc1nc(N2CCNCC2)c2c3c(sc2n1)CCCC3 | inconclusive [inhibitor, partial curve, poor fit] | 
23 | Cc1ccc2nc(Cl)c3cc(C(=O)NCCCN(C)Cc4ccccc4)sc3c2c1 | inconclusive [inhibitor, single point] | 
24 | Cc1nc2cc(NCc3ccccc3O)ccc2n1Cc1ccccc1 | inconclusive [inhibitor, single point] | 
25 | CCCOc1ccc2c(c1)C(=NN=C(N)N)c1cc(OCCC)ccc1-2 | active: 25.9 µM | 
26 | O=C(CCN1C(=O)/C(=C/c2cccs2)SC1=S)Nc1ccccn1 | inconclusive [inhibitor, single point] | 
27 | O=C1c2ccccc2C(Nc2ccc(S(=O)(=O)N3CCOCC3)cc2)N1c1ccccn1 (stereo unspecified) |  | inconclusive: -31.7% [inhibitor]
28 | C=C1c2cccc(OC)c2O[C@H](C(=O)OCC)[C@@H]1CCCCCC | inconclusive [inhibitor, single point] | 
29 | COc1cc(C(=O)N2CCN(C/C=C/c3ccccc3)CC2)cc(OC)c1C | inconclusive [inhibitor, single point] | 
30 | C=C1CC2C=C(NC(C)=O)CC(C1)C2 (stereo unspecified) | inconclusive [inhibitor, single point] | 
31 | CCOC(=O)CC1COCCN1C(=O)c1cc(COc2ccc(F)c(F)c2)on1 (stereo unspecified) | inconclusive [inhibitor, partial curve] | 
32 | Cc1ccc(C)c(N(C)C(=O)Cc2c(C(=O)O)[nH]c3ccc(Cl)cc23)c1 | inconclusive [inhibitor, partial curve] | 
33 | COC(=O)[C@@H](NC(=O)N1CCN(C(=O)C2COc3ccccc3O2)CC1)C(C)C (stereo partly specified) |  | inactive: -23.9%
34 | CCOc1ccc2nc(SCC(=O)NCc3ccco3)sc2c1 | inconclusive [inhibitor, partial curve] | 
35 | CO/N=C(/CS(=O)(=O)c1ccc(C)cc1)c1ccc(OC)cc1 | inconclusive [inhibitor, full curve] | 
36 | COc1ccc(-c2cc(C(=O)Nc3cc(OC)c(OC)c(OC)c3)no2)cc1OC |  | inconclusive: -18.4% [inhibitor]
37 | COc1ccc(C2C(C(=O)Nc3ccc(C)cc3C)=C(C)Nc3nc(SCc4cccc(C)c4)nn32)c(OC)c1 (stereo unspecified) | inconclusive [inhibitor, full curve, poor fit] | 
38 | Cc1[nH]n(-c2ncc(-c3ccccc3)s2)c(=O)c1C(c1ccc(Br)cc1)C(C#N)C#N (stereo unspecified) | inconclusive [inhibitor, partial curve] | 
39 | COc1ccc(-c2cccc(NS(=O)(=O)c3cc([N+](=O)[O-])ccc3Cl)c2)nn1 | inconclusive [inhibitor, single point] | 
40 | OC(CSc1ccccc1)CN1CCN(c2ccccc2)CC1 (stereo unspecified) | inconclusive [inhibitor, partial curve] | 
41 | CCN1CCN(c2cc(C)c3cc(NC(=S)NCCCN4CCc5ccccc5C4)ccc3n2)CC1 | inconclusive [inhibitor, single point] | 
